{
  "source": "PubChem BioAssay AID504332",
  "about": "(National Center for Advancing Translational Sciences (NCATS), 2011)",
  "note": "Among all 350,000 compounds or so, about 31,000 (8.9%) were called active. The shares of active, inactive and inconclusive entries below differ from those in the screen. Calls follow the shape of the dose curve; as a rule, active = well fitted inhibition curve with a large enough effect; inconclusive = small, poorly fitted or top-dose-only effect; inactive = no such curve, though single readings can be large or run the other way. A potency beside an inconclusive call is a rough fit, not a confirmed value. % is scaled to controls: 0 for no effect and ±100 for the full control effect; potency is read from the fitted curve at half-maximal effect; tags tell the direction and shape of the fitted curve.",
  "data": [
    {"target": "Histone-lysine N-methyltransferase EHMT2 (Homo sapiens) (UniProt Q96KQ7)", "sequence (Q96KQ7 whole entry, looked up)": "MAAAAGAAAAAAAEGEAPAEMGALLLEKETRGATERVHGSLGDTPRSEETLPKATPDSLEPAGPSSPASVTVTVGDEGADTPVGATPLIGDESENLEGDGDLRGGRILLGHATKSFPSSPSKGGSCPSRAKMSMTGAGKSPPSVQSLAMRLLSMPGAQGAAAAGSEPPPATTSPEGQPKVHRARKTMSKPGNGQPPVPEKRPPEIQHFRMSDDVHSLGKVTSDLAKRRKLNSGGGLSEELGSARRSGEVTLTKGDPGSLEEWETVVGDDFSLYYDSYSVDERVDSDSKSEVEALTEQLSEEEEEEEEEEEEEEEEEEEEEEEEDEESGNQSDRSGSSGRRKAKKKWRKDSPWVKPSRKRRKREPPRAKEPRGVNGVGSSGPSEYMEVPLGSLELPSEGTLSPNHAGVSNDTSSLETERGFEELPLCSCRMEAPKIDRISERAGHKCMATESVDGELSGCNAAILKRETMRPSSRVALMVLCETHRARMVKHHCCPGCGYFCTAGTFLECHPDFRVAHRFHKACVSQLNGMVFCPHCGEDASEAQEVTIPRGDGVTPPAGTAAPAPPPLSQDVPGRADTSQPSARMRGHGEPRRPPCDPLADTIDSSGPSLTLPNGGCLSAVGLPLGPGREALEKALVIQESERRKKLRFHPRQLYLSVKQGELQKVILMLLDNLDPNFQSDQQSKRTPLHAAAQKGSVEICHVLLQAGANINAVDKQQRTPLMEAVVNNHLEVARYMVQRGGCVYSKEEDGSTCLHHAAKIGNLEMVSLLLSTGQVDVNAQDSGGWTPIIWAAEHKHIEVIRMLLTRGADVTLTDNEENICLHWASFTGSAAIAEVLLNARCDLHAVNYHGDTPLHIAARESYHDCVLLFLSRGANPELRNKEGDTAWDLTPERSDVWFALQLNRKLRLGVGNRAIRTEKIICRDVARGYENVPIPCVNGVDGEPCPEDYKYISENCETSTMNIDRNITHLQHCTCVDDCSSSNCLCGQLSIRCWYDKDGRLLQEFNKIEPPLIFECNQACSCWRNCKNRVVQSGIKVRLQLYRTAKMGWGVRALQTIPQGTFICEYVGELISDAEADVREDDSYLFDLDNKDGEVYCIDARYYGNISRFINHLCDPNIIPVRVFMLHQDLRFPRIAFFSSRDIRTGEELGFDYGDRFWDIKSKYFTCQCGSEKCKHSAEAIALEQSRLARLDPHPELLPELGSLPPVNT", "assay": "qHTS Assay for Inhibitors of Histone Lysine Methyltransferase G9a; also: nearly all actives have a fitted effect of over 75% in size", "details": "G9a H3K9 monomethylation, AlphaScreen, 2 h; activity, negative = inhibition: at 59 µM (top of the series) unless noted", "outline": "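Readings reflect AlphaScreen signal from monomethyl-H3K9 antibody detection. HMT at 20 nM; substrate b-H3K9 500 nM; cofactor SAM 20 uM; 2 h RT reaction; compounds tested as titrations in qHTS with 15 min preincubation.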", "values": [
      {"smiles": "Cc1sc(-n2c(C)cc(/C=N/n3cnnc3)c2C)c(C#N)c1C", "Potency": "active: 8.91 µM"},
      {"smiles": "CC1=Nc2ccccc2/C1=C\\c1nc(-c2ccc(F)cc2)oc1O", "Potency": "inconclusive: 44.7 µM [inhibitor, partial curve]"},
      {"smiles": "N#Cc1nc(COc2ccccc2)oc1NCCN1CCOCC1", "Potency": "inconclusive: 7.94 µM [inhibitor, full curve, poor fit]"},
      {"smiles": "O=c1ccc(Cc2ccccn2)n[nH]1", "Potency": "inconclusive: 22.4 µM [inhibitor, partial curve, poor fit]"},
      {"smiles": "O=C(Cn1ncc2c([nH]c3ccccc32)c1=O)NCC1CCN(Cc2ccccc2F)CC1", "activity, negative = inhibition": "inactive: 13.2%"},
      {"smiles": "CCCc1[nH]nc2c1C(c1ccoc1)C(C#N)=C(N)O2", "note": "(stereo not drawn)", "Potency": "inconclusive: 100 µM [inhibitor, single point]"},
      {"smiles": "O=C(NCc1ccccc1F)C1CCCN(C(=O)N2CCOc3ccccc32)C1", "note": "(stereo not drawn)", "Potency": "inconclusive: 31.6 µM [inhibitor, single point]"},
      {"smiles": "CC(NC(=O)COc1ccccc1)C(c1cccs1)N1CCCC1", "note": "(stereo not drawn)", "Potency": "inconclusive: 50.1 µM [inhibitor, partial curve, poor fit]"},
      {"smiles": "CC(C)C(c1nnnn1Cc1ccccc1)N(Cc1ccco1)Cc1cccs1", "note": "(stereo not drawn)", "Potency": "inconclusive: 56.2 µM [inhibitor, partial curve, poor fit]"},
      {"smiles": "CC(C)C(=O)NC(=S)Nc1c(Cl)ccc2nsnc12", "activity, negative = inhibition": "inconclusive: -62.3% [inhibitor]"},
      {"smiles": "COc1ccc(/C=C2\\SC(c3ccc(C)cc3)=NC2=O)cc1OC", "Potency": "active: 2.24 µM"},
      {"smiles": "O=C(CNCc1cccs1)Nc1ccc(S(=O)(=O)N2CCCCC2)cc1", "Potency": "active: 10 µM"},
      {"smiles": "Cc1ccc(C(=O)Nc2ccc(Cl)cc2C)c(Cl)c1", "activity, negative = inhibition": "inactive: 5.9% [at 102 µM]"},
      {"smiles": "CN(CC(=O)Nc1cccc(F)c1)C(=O)c1csc2c1CCCC2", "activity, negative = inhibition": "inactive: -18.3% [at 0.501 µM]"},
      {"smiles": "O=C(/C=C/N1CCOCC1)c1cc2ccccc2o1", "Potency": "active: 10 µM"},
      {"smiles": "COc1ccc(C(=O)Nc2nc3cc4c(cc3s2)OCCO4)c(OC)c1", "Potency": "inconclusive: 14.1 µM [inhibitor, full curve]"},
      {"smiles": "CCOc1ccc(S(=O)(=O)N(CC(=O)Nc2ccc(OC)cc2OC)c2ccccc2)cc1", "Potency": "inconclusive: 17.8 µM [inhibitor, partial curve]"},
      {"smiles": "CC[n+]1c(/C=C/N(C)c2ccccc2)oc2ccc(F)cc21", "Potency": "active: 8.91 µM"},
      {"smiles": "C=CCSc1nnc(-c2ccccc2NC(C)=O)c(=O)[nH]1", "Potency": "inconclusive: 15.8 µM [inhibitor, single point]"},
      {"smiles": "COc1cc2cc(CN(CCc3cccc(C)c3)C(=S)NCCCN3CCOCC3)c(=O)[nH]c2cc1OC", "Potency": "inconclusive: 56.2 µM [inhibitor, partial curve, poor fit]"},
      {"smiles": "COc1ccc(NC(=O)c2cnc(NS(=O)(=O)c3ccccc3)nc2)cc1", "Potency": "inconclusive: 20 µM [inhibitor, partial curve, poor fit]"},
      {"smiles": "CCOC(=O)c1ccc(NC(=O)CCCc2nc(-c3cc(OC)c(OC)c(OC)c3)no2)cc1", "activity, negative = inhibition": "inactive: 4.61%"},
      {"smiles": "CCC(C(=O)NCc1ccco1)N(C(=O)CNS(=O)(=O)c1ccccc1)c1ccc(F)cc1", "note": "(stereo not drawn)", "activity, negative = inhibition": "inactive: 15.1%"},
      {"smiles": "CCCNC(=O)C1CCC(Cn2c(=O)c3sccc3n(CC(=O)NCc3ccccc3)c2=O)CC1", "note": "(stereo not drawn)", "activity, negative = inhibition": "inactive: 8.43%"},
      {"smiles": "Cc1cc(NC(=O)CN2CCCCCCC2)no1", "Potency": "inconclusive: 31.6 µM [inhibitor, single point]"},
      {"smiles": "O=[N+]([O-])c1cccc(NC(=S)N2CCN(c3ccccn3)CC2)c1", "Potency": "inconclusive: 3.98 µM [inhibitor, partial curve, poor fit]"},
      {"smiles": "COc1ccc(N2C(=O)CS(=O)(=O)C23C(=O)N(Cc2ccccc2F)c2ccccc23)cc1Cl", "note": "(stereo not drawn)", "activity, negative = inhibition": "inactive: -31.1%"},
      {"smiles": "CC1CC(C)CN(C(=O)c2ccc(C#N)cc2)C1", "note": "(stereo not drawn)", "Potency": "inconclusive: 56.2 µM [inhibitor, partial curve, poor fit]"},
      {"smiles": "O=C(CCN1C(=O)c2ccc([N+](=O)[O-])cc2C1=O)Nc1ccc(O)cc1C(=O)O", "Potency": "active: 50.1 µM"},
      {"smiles": "Cc1cccc(Nc2nc3c(s2)CCCC3)c1", "Potency": "inconclusive: 20 µM [inhibitor, partial curve, poor fit]"},
      {"smiles": "CC(C)c1cc[n+](-c2nc([O-])sc2C=O)cc1", "activity, negative = inhibition": "inconclusive: -130% [inhibitor]"},
      {"smiles": "CC(C)(C)NC(=S)N/N=C/c1cc(Br)c(O)c(Br)c1", "activity, negative = inhibition": "inactive: -27.2%"},
      {"smiles": "Clc1ccc(-c2nnc(N3CCCC3)nn2)cc1", "Potency": "active: 7.08 µM"},
      {"smiles": "CC(=O)OCCn1c(C)[n+](CCOC(C)=O)c2cc(Cl)c(Cl)cc21", "Potency": "active: 50.1 µM"},
      {"smiles": "CCN(Cc1nc2ccccc2n1C)c1ccccc1", "activity, negative = inhibition": "inconclusive: -55% [inhibitor] [at 0.501 µM]"},
      {"smiles": "CCCCN(C)CCNC(=O)c1c[nH]c2ccc(S(=O)(=O)N(CC)CC)cc2c1=O", "Potency": "inconclusive: 50.1 µM [inhibitor, partial curve, poor fit]"},
      {"smiles": "CCOc1ccc(/C=C2\\SC(=S)N(N3C(=O)C4CC4C3=O)C2=O)cc1", "note": "(stereo not drawn)", "Potency": "active: 39.8 µM"},
      {"smiles": "CN1/C(=C/c2cccc[n+]2CCO)Sc2ccccc21", "Potency": "active: 44.7 µM"},
      {"smiles": "Cc1cccc(Cn2cc(S(=O)(=O)c3ccccc3)c(=O)c3cc(F)c(N4CCOCC4)cc32)c1", "activity, negative = inhibition": "inactive: -0.377%"},
      {"smiles": "COc1ccc(NS(=O)(=O)c2cccc(C(=O)NCc3ccco3)c2)cc1", "Potency": "inconclusive: 79.4 µM [inhibitor, single point]"},
      {"smiles": "CCCc1nc2ccccc2n1CCc1ccccc1", "activity, negative = inhibition": "inactive: -20.2% [at 102 µM]"},
      {"smiles": "COC(=O)c1cc(OC)c(OC)cc1NC(=O)c1csc(C)c1", "activity, negative = inhibition": "inactive: -1.83% [at 102 µM]"},
      {"smiles": "CC1CC(Nc2ccccc2)c2ccccc2N1C(=O)c1cccnc1", "note": "(stereo not drawn)", "activity, negative = inhibition": "inactive: 1.58%"},
      {"smiles": "COc1ccc(OCc2cc(C(=O)NCc3cccc(C)n3)no2)c(Cl)c1", "Potency": "inconclusive: 89.1 µM [inhibitor, single point]"},
      {"smiles": "O=C(Nc1ccc(CN2CCOCC2)cc1)c1ccc(Cl)cc1", "activity, negative = inhibition": "inactive: -9.47% [at 102 µM]"},
      {"smiles": "O=C(Nc1ccc(OC(F)(F)F)cc1)C1CCCN(C(=O)c2ccc(Cl)cc2)C1", "note": "(stereo not drawn)", "activity, negative = inhibition": "inactive: 11.3% [at 12.7 µM]"},
      {"smiles": "COC(=O)COc1ccc2cc(-c3ccc(OC)cc3)c(=O)oc2c1", "Potency": "inconclusive: 89.1 µM [inhibitor, single point]"},
      {"smiles": "COC(=O)C(=NNc1c(C)n(C)n(-c2ccccc2)c1=O)C(=O)OC", "Potency": "inconclusive: 39.8 µM [inhibitor, single point]"},
      {"smiles": "CC(C)CN(C(=O)COC(=O)c1ccc2c(c1)NC(=O)CS2)C1CCS(=O)(=O)C1", "note": "(stereo not drawn)", "Potency": "inconclusive: 10 µM [inhibitor, partial curve, poor fit]"},
      {"smiles": "COc1ccc(Nc2nc(-c3cccc([N+](=O)[O-])c3)nc3ccccc23)cc1", "activity, negative = inhibition": "inactive: -9.34%"},
      {"smiles": "Cc1cccc(Nc2nc(-c3ccccn3)cs2)n1", "Potency": "inconclusive: 14.1 µM [inhibitor, partial curve]"},
      {"smiles": "COc1cc(C(=O)Nc2cc3c(cc2N2CCCCC2)n(C)c(=O)n3C)cc(OC)c1OC", "Potency": "inconclusive: 89.1 µM [inhibitor, single point]"},
      {"smiles": "CN(C)c1ccc(CNC(=O)Cc2ccc(NC(=O)N3CCCCc4ccccc43)cc2)cc1", "Potency": "active: 12.6 µM"},
      {"smiles": "CC(=O)c1cc(-c2ccccc2)n(CCC(=O)NC2CCC(C)CC2)c1C", "note": "(stereo not drawn)", "activity, negative = inhibition": "inactive: 22.9% [at 102 µM]"},
      {"smiles": "CCOC(=O)Cn1c2ccccc2c2nc3ccccc3nc21", "Potency": "inconclusive: 0.1 µM [inhibitor, full curve, poor fit]"},
      {"smiles": "COc1ccc(OC)c(CN2CCN(C(=O)c3cccc(S(=O)(=O)Nc4ccc(C)cc4)c3)CC2)c1", "Potency": "inconclusive: 50.1 µM [inhibitor, partial curve]"},
      {"smiles": "O=C(OCCOCCO)c1ccccc1Nc1cccc(C(F)(F)F)c1", "activity, negative = inhibition": "inactive: 3.64% [at 5.15 µM]"},
      {"smiles": "COc1ccc(-c2oc3cc(OC)c(O)c(OC)c3c(=O)c2OC)cc1O", "activity, negative = inhibition": "inconclusive: -63.9% [inhibitor]"},
      {"smiles": "Cc1ccc(NN2C(=O)C=C(c3ccccc3)C2=O)cc1", "Potency": "active: 10 µM"},
      {"smiles": "Cc1ncsc1CCOC(=O)c1cccnc1", "Potency": "inconclusive: 39.8 µM [inhibitor, single point]"},
      {"smiles": "COc1ccc(OC)c(NC(=O)c2cn(C)c(=O)c3cc(OC)c(OC)cc23)c1", "Potency": "active: 39.8 µM"},
      {"smiles": "CCN(CC)C(=O)CSc1nc2c(sc(=S)n2-c2ccccc2)c(=O)[nH]1", "Potency": "inconclusive: 44.7 µM [inhibitor, partial curve, poor fit]"},
      {"smiles": "Cc1ccccc1Cn1nc(C)c(NC(=O)c2noc3c2CCc2ccccc2-3)c1C", "Potency": "inconclusive: 31.6 µM [inhibitor, single point]"},
      {"smiles": "CCOC(=O)c1cc(CC)sc1NC(=O)CC1Sc2ccc(C(F)(F)F)cc2NC1=O", "note": "(stereo not drawn)", "Potency": "inconclusive: 25.1 µM [inhibitor, single point]"},
      {"smiles": "CCCCNC(=S)NNC(=O)c1cc(-c2ccncc2)nc2ccccc12", "Potency": "inconclusive: 56.2 µM [inhibitor, partial curve, poor fit]"},
      {"smiles": "COc1cccc(C2CC(c3ccc(F)cc3)Nc3nc(N)nn32)c1", "note": "(stereo not drawn)", "Potency": "inconclusive: 0.794 µM [inhibitor, partial curve, poor fit]"},
      {"smiles": "COc1ccc(N2CCN(C(=O)c3cc4c(=O)oc5ccc(C)cc5c4s3)CC2)cc1", "activity, negative = inhibition": "inactive: -3.28%"},
      {"smiles": "Fc1cccc(CN2CCCCCCC2)c1", "Potency": "active: 12.6 µM"},
      {"smiles": "O=C1/C(=C\\c2ccco2)SC(=S)N1Cc1ccccc1", "activity, negative = inhibition": "inactive: 25.3% [at 0.501 µM]"},
      {"smiles": "COc1ccc(C(=O)n2nc(-c3ccco3)nc2N)cc1OC", "Potency": "inconclusive: 22.4 µM [inhibitor, single point]"},
      {"smiles": "Cc1c(C)n(Cc2ccccc2)c2ccc(C(=O)NCC(C)c3ccccc3)cc12", "note": "(stereo not drawn)", "activity, negative = inhibition": "inactive: -33.1%"},
      {"smiles": "Cc1ccc(S(=O)(=O)NCC(=O)OCC(=O)N2N=C(c3ccc(Cl)cc3)CC2c2ccco2)cc1C", "note": "(stereo not drawn)", "activity, negative = inhibition": "inactive: -10.9%"},
      {"smiles": "Cn1c(NC(=O)c2ccccc2)c(-c2ccccn2)c(=O)c2ccccc21", "Potency": "inconclusive: 44.7 µM [inhibitor, partial curve, poor fit]"}
    ]}
  ]
}
